{"source": "paper PMC6919601", "about": "“Identification of Plasmodium dipeptidyl aminopeptidase allosteric inhibitors by high throughput screening” (PLoS ONE, 2019)", "note": "About 230 (0.21%) of roughly 110,000 compounds showed an effect of 50% or more. This is one part of the list.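 Note: 30 min substrate incubation versus DMSO and 10 µM JCP410 controls.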"}
{"target": "DPAP1 (Plasmodium falciparum, UniProt Q8IIJ9)", "sequence (Q8IIJ9 whole entry, looked up)": "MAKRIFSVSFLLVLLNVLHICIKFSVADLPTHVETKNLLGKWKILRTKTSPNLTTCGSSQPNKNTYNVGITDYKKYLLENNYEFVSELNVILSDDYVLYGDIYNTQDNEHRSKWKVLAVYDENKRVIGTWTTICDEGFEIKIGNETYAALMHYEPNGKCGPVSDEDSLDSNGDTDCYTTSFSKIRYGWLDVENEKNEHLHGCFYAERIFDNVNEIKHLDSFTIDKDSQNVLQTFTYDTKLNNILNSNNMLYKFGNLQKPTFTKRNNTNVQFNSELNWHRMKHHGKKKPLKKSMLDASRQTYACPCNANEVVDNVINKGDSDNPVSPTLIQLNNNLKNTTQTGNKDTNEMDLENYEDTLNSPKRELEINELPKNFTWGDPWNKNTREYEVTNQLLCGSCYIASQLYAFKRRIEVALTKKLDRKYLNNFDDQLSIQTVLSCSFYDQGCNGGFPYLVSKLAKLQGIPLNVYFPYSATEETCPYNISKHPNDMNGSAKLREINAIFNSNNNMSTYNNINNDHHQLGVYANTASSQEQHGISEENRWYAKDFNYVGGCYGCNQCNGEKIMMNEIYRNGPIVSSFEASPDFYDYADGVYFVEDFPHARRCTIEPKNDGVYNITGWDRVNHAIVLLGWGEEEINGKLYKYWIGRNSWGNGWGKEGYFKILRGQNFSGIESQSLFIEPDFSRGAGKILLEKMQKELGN", "assay": "primary screen, percent inhibition; read by cleavage of a fluorogenic dipeptide substrate; higher = more effect of the substance", "set-up": "species or system P. falciparum D10 trophozoite lysates; single well", "units": {"% Inhibition @ 10 uM": "%"}}
{"smiles": "O=C1c2ccccc2C(=O)N1CC1c2ccccc2CCN1C(=O)C1CCCCC1", "note": "(centres unmarked)", "% Inhibition @ 10 uM": -1.54}
{"smiles": "COc1cc(C2C(C#N)=C(N)Oc3[nH]nc(CSc4ccc(C)cc4)c32)cc(OC)c1OC", "note": "(centres unmarked)", "% Inhibition @ 10 uM": -0.941}
{"smiles": "CC[C@H](NC(=O)[C@H](CS(=O)(=O)Cc1ccccc1)NC(=O)N1CCOCC1)C(=O)c1nccs1", "% Inhibition @ 10 uM": -0.214}
{"smiles": "COc1ccc(CNC(=O)c2cc(NS(=O)(=O)c3ccc(C)cc3)ccn2)cc1", "% Inhibition @ 10 uM": 6.31}
{"smiles": "CC(Cc1ccccc1F)N(C)CCN(C)C", "note": "(centres unmarked)", "% Inhibition @ 10 uM": -1.75}
{"smiles": "CC(C)N1C(=O)S/C(=C\\c2cccn2-c2cccc(C(=O)O)c2)C1=O", "% Inhibition @ 10 uM": 9.73}
{"smiles": "CCCC(C)C(=O)Nc1nc2ccccc2s1", "note": "(centres unmarked)", "% Inhibition @ 10 uM": -8.26}
{"smiles": "Cc1nnc(N2C(=O)c3ccccc3C2=O)s1", "% Inhibition @ 10 uM": 2.54}
{"smiles": "O=C(O)CCC(=O)N1CC=C(c2ccccc2)CC1", "% Inhibition @ 10 uM": 0.64}
{"smiles": "COc1ccccc1OCc1ccc(C(=O)NCc2ccccn2)cc1", "% Inhibition @ 10 uM": -7.98}
{"smiles": "COc1cccc(Oc2cc(F)nc(N)n2)c1", "% Inhibition @ 10 uM": 2.92}
{"smiles": "Cc1ccc(-c2ccccc2)n1-c1ccccc1C(=O)O", "% Inhibition @ 10 uM": 4.55}
{"smiles": "COc1cc(CCNC(=O)CCc2c(C)nc3c4cccnc4nn3c2C)cc(OC)c1OC", "% Inhibition @ 10 uM": -0.0115}
{"smiles": "Cc1cc(Cl)ccc1OCCCc1c(C)n[nH]c1C", "% Inhibition @ 10 uM": -0.553}
{"smiles": "COc1ccc(CN2CC(C(=O)NCc3ccc4c(c3)OCO4)CC2=O)cc1", "note": "(centres unmarked)", "% Inhibition @ 10 uM": -1.21}
{"smiles": "COc1ccc2c(CNCc3ccco3)c(C(=O)O)[nH]c2c1", "% Inhibition @ 10 uM": 2.6}
{"smiles": "O=C(c1ccc(Br)cc1)N(Cc1ccc(Cl)cc1)C1CCS(=O)(=O)C1", "note": "(centres unmarked)", "% Inhibition @ 10 uM": -11}
{"smiles": "CCN(CC)CCNC(=O)c1nc(-c2cccs2)no1", "% Inhibition @ 10 uM": -0.0678}
{"smiles": "CCOC(=O)c1ccc(-n2c(C)c3c(OC)cccc(=O)c3c2C)cc1", "% Inhibition @ 10 uM": -0.958}
{"smiles": "COc1ccc(-c2nn(C)c3sc(C(=O)NCCCN4CCOCC4)cc23)cc1OC", "% Inhibition @ 10 uM": 1.23}
{"smiles": "Cc1ccc(CCNC(=O)CS(=O)(=O)Cc2nc(-c3ccc(C)cc3)oc2C)cc1", "% Inhibition @ 10 uM": -3.7}
{"smiles": "CCOc1ccc(/C=C2/SC(=O)NC2=O)cc1OC", "% Inhibition @ 10 uM": 1.12}
{"smiles": "CCN1C(=O)C(O)(CC(=O)c2cccc(N)c2)c2ccccc21", "note": "(centres unmarked)", "% Inhibition @ 10 uM": -5.34}
{"smiles": "O=C(NC1CCCCC1)N1CCC2(CC1)OCCO2", "% Inhibition @ 10 uM": -0.551}
{"smiles": "CC1CCc2c(sc(NC(=O)COc3ccccc3)c2C#N)C1", "note": "(centres unmarked)", "% Inhibition @ 10 uM": -2.89}
{"smiles": "O=C1C=C(NCc2ccc(Cl)cc2Cl)C2(CCCCC2)O1", "% Inhibition @ 10 uM": 1.67}
{"smiles": "COc1ccc(C2C(C#N)=C(N)Oc3cc(N)ccc32)cc1OC", "note": "(centres unmarked)", "% Inhibition @ 10 uM": -0.41}
{"smiles": "CC(C)C[C@H](NC(=O)c1ccc(N2CCOCC2)cc1)C(=O)NC(C#N)C#N", "% Inhibition @ 10 uM": -1.61}
{"smiles": "COc1ccccc1/C=C1\\N=C(c2ccccc2OC)OC1=O", "% Inhibition @ 10 uM": 11.2}
{"smiles": "CCN(C1CCCCC1)S(=O)(=O)c1ccc(S(=O)(=O)N2CCN(CCC#N)CC2)cc1", "% Inhibition @ 10 uM": -0.0735}
{"smiles": "COCC(=O)Nc1cccc(C)c1C", "% Inhibition @ 10 uM": 0.634}
{"smiles": "COc1cc(OC)cc(C(=O)Nc2ccc(S(=O)(=O)Nc3cccc(Cl)c3)cc2)c1", "% Inhibition @ 10 uM": 4.05}
{"smiles": "CCOc1ccc(CCNC(=O)CCc2nnc3ccc(N4CCN(C)CC4)nn23)cc1OCC", "% Inhibition @ 10 uM": -6.16}
{"smiles": "Cc1oc(-c2ccc(C(=O)NCc3cccnc3)cc2)nc1CS(=O)c1ccccc1", "note": "(centres unmarked)", "% Inhibition @ 10 uM": -6.7}
{"smiles": "CCN(CC)CCN(C)Cc1ccc(F)cc1", "% Inhibition @ 10 uM": 3.68}
{"smiles": "COCCCNC(=O)Cn1cc(C(=O)c2ccc(F)cc2)c(=O)c2ccc(C)nc21", "% Inhibition @ 10 uM": 2.86}
{"smiles": "Cc1nc(Oc2ccccc2)cc(-n2nc(C)c(C#N)c2N)n1", "% Inhibition @ 10 uM": -2.77}
{"smiles": "NC(=O)C(c1ccccc1)C(c1ccccc1)c1ccccc1", "note": "(centres unmarked)", "% Inhibition @ 10 uM": -2.56}
{"smiles": "COc1ccc(C(CC(=O)O)NC(=O)c2sc3ccccc3c2Cl)cc1", "note": "(centres unmarked)", "% Inhibition @ 10 uM": 4.32}
{"smiles": "COc1ccc(S(=O)(=O)Nc2ccc(S(=O)(=O)Nc3cccc4ccccc34)cc2)cc1C", "% Inhibition @ 10 uM": 19.2}
{"smiles": "c1c2c(cc3nsnc13)OCCO2", "% Inhibition @ 10 uM": -5.47}
{"smiles": "Cc1nn(CCCC(=O)NCc2cccnc2)c(=O)c2c1sc1ccccc12", "% Inhibition @ 10 uM": -5.95}
{"smiles": "Cc1ccccc1NC(=O)C1C(=O)N(C)c2ccccc21", "note": "(centres unmarked)", "% Inhibition @ 10 uM": 0.924}
{"smiles": "CCOc1ccccc1C(=O)N(Cc1ccco1)Cc1ccc(C)o1", "% Inhibition @ 10 uM": 2.29}
{"smiles": "O=C1C=C(S(=O)(=O)O)c2ccccc2C1=O", "% Inhibition @ 10 uM": -6.2}
{"smiles": "CN1CCN(CC(=O)N2c3ccccc3C=Cc3ccccc32)CC1", "% Inhibition @ 10 uM": -6.36}
{"smiles": "CC(=O)Nc1ccc(NC(=O)CCc2ccccc2)cc1", "% Inhibition @ 10 uM": 0.907}
{"smiles": "CCN(CC)CCCOc1cc(C)cc(C)c1C", "% Inhibition @ 10 uM": -3.94}
{"smiles": "O=CN1CCN(Cc2ccccc2Cl)CC1", "% Inhibition @ 10 uM": -2.95}
{"smiles": "Cc1ccc(Cl)cc1NC(=O)COc1ccc(S(=O)(=O)NC2CCCCC2)cc1", "% Inhibition @ 10 uM": 8.09}
{"smiles": "CN(C(=O)c1cc2c(-c3ccccc3F)nn(C)c2s1)C1CCCCC1", "% Inhibition @ 10 uM": -9.06}
{"smiles": "Cc1cc(NC(=O)C2(c3ccccc3)CCCC2)no1", "% Inhibition @ 10 uM": -2.05}
{"smiles": "CC(=O)C1(C)OC(N)=C(C#N)C(c2ccccc2)C1(C#N)C#N", "note": "(centres unmarked)", "% Inhibition @ 10 uM": 1.76}
{"smiles": "Cc1cc(C)n(CCc2nc3c4ccccc4nc(NCCc4ccccc4)n3n2)n1", "% Inhibition @ 10 uM": 2.6}
{"smiles": "COc1ccc(N(CC(=O)Nc2ccc3ccccc3c2)S(=O)(=O)c2ccccc2)c(OC)c1", "% Inhibition @ 10 uM": 5.9}
{"smiles": "O=S(=O)(c1cccc2nsnc12)N1CCN(Cc2ccc3c(c2)OCO3)CC1", "% Inhibition @ 10 uM": 10.1}
{"smiles": "CS(=O)(=O)N(CC(=O)NCc1ccccc1Cl)C1CCCCC1", "% Inhibition @ 10 uM": -0.545}
{"smiles": "COc1cc2nc(C)[nH]c2cc1OC", "% Inhibition @ 10 uM": 1.13}
{"smiles": "Cc1ccc(Oc2ccc(NC(=O)CCC(=O)O)cc2)cc1", "% Inhibition @ 10 uM": -3.5}
{"smiles": "Cc1ccc(Nc2nc(Cl)nc(NC(C)(C)C)n2)cc1", "% Inhibition @ 10 uM": -0.744}
{"smiles": "Cc1cc(C)c(-c2c(NCc3ccco3)c(=O)c2=O)cc1C", "% Inhibition @ 10 uM": -9.09}
{"smiles": "O=C(c1ccc(F)cc1)N1CCN(Cc2ccccc2Br)CC1", "% Inhibition @ 10 uM": 3.95}
{"smiles": "CCOc1ccc(/C=C(\\C#N)c2nc(-c3ccc(OC)cc3)cs2)cc1", "% Inhibition @ 10 uM": -3.03}
{"smiles": "Cc1oc(-c2ccc(C(=O)N3CCN(c4ncccn4)CC3)cc2)nc1CSc1ccccc1", "% Inhibition @ 10 uM": 5.71}
{"smiles": "Cc1ccc(CCN2CC(C(=O)N3CCC(Cc4ccccc4)CC3)CC2=O)cc1", "note": "(centres unmarked)", "% Inhibition @ 10 uM": 1.62}
